Test results reported in patent US11364242B2, “Treatment agents for inhibiting HIV and cancer in HIV infected patients” (UNIVERSITY OF MARYLAND, BALTIMORE, priority 2015, dated 2022).

What was measured:
R5 HIV JRFL Env = assay: Cell-cell fusion assay, Env-expressing 293T effectors and primary CD4+ T targets; conditions: CD4 targets from two donors
R5 HIV (JRFL) = assay: Real-time PCR of early reverse transcription products and integrated HIV DNA in infected PBLs; assay type: cell-based; conditions: 16 hours, PBLs from two donors
Protocol: Activated PBLs were infected with R5 and X4 HIV strains using a MOI of 0.01. Infected cells were cultured in the presence of IL-2 and different concentrations of INK128. Cell aliquots were collected at 16 and 72 hours for analyses of early products of reverse transcription and of integration, respectively, by real time PCR. Detection of early products of reverse transcription was done with primers specific for the R/U5 region (60). For detection of integrated HIV DNA, a real-time nested Alu-HIV PCR assay was used as previously described (61, 62), with the modifications described herein.
DNA was isolated using Miniblood kit (Qiagen™). PCR amplification was performed using Quantitect SYBR Green™ PCR Kit (Qiagen™) in a LightCycler™ (Biorad™). Detection of early products of reverse transcription was done in reactions containing 100 ng of DNA and the primer pair 5′-[…]-3′ (SEQ ID NO. 1) and 5′-[…]-3′ (SEQ ID NO. 2) (R/U5 region) (60). […] Amplified products were analyzed by denaturation/renaturation to verify the specific Tm. The PCR cycle at which the signal entered the exponential range was used for quantification, and HIV copy numbers were corrected for those of α-tubulin. […] As a standard curve for relative quantification of integrated DNA, the Alu-gag was first run using serial dilutions of DNA isolated from HIV infected PBLs (diluted in HIV-negative DNA). […]

Q: What does the source list for `CC(C)n1nc(-c2ccc3oc(N)nc3c2)c2c(N)ncnc21` [INK128, 5-(4-amino-1-propan-2-ylpyrazolo[3,4-d]pyrimidin-3-yl)-1,3-benzoxazol-2-amine]?
A: fusion of CD4+T target cells with Env-expressing cells (R5 HIV JRFL Env): inhibited fusion; early products of reverse transcription (R/U5 transcripts) (R5 HIV (JRFL)): decreased levels
